From PubChem BioAssay AID1508623 (National Center for Advancing Translational Sciences (NCATS), 2021)
Hit rate of the full screen: of about 48,000 compounds, about 450 (0.94%) were called active. About 19% were inconclusive and are not listed. Calls come from the whole dose curve; as a rule, active = well fitted inhibition curve with a large enough effect; inconclusive = small, poorly fitted or top-dose-only effect; inactive = no such curve, though single readings can be large or run the other way. Some of the results follow.

Test: Primary qHTS for Identification of Small Molecule Inhibitors of Huntingtin Promoter Activity; note: nearly all actives have a fitted effect of over 50% in size
Settings: HEK293 HTT promoter firefly luciferase reporter (activity 0% = vehicle and -100% = no light), 24 h; series mostly up to 57.5 µM; activity change, negative = inhibition: at the top concentration
Procedure, shortened: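 HEK293 luciferase promoter-reporter cells (2,500/well) plated 24 h, then compounds added at up to 57.5 uM final for 24 h at 37 °C. Firefly luminescence by Dual-Glo, normalized to vehicle (0%) and zero RLU (-100%).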

Activity change, negative = inhibition, inactive:
C[C@H](O)[C@@H]1C(=O)N2C(C(=O)O)=C(S[C@@H]3CN[C@H](CNS(N)(=O)=O)C3)[C@@H](C)[C@@H]12 9.52%
Cc1ccccc1C(=O)Nc1c(C)nc2ccccn2c1=O 5.57%
Cn1c(=O)oc2cc(S(=O)(=O)N3CCCC(C(=O)NCCc4ccccc4)C3)ccc21 (stereo not drawn) -17.6%
CC(=O)c1ccc(NS(=O)(=O)c2ccc3[nH]c4c(c3c2)CCCC4)cc1 -0.227%
Cc1ccc(CNC(=O)c2c[nH]n3c(=O)c(Cc4ccc(Cl)cc4)c(C)nc23)cc1 -18.5%
Cc1c(C)c2c(c(C)c1OC(=O)CCC(=O)OCCO)CC[C@@](C)(CCC[C@H](C)CCC[C@H](C)CCCC(C)C)O2 -28.5%
Cc1cccc(CNC(=O)c2ccc3nc(Cc4ccccc4)oc3c2)c1 -21.2%
O=C(NCCc1ccccc1)c1nn(-c2ccc(F)cc2)nc1CO 6.9%
COc1ccc(NC(=O)CSc2nnc(NC(=O)NC3CCCCC3)s2)cc1OC 74.6%
Cc1cccc(NC(=O)CS(=O)(=O)c2cccc3nsnc23)c1 -7.28%
Cc1ccc(CCNC(=O)c2c3c(nc4ccccc24)C(=O)N(C2CCCCC2)C3)cc1 -10.3%
Cc1cccc(NC(=O)COc2ccc(-c3nn(C)c(=O)c4ccccc34)cc2)c1 -30.3%
COC(=O)c1ccccc1NC(=O)CSc1nc(=O)cc(N)n1-c1ccccc1 -15.5%
Cc1ccc(NC(=O)Cn2c(=O)n(Cc3nc(-c4ccccc4)no3)c(=O)c3ccccc32)cc1C -22.8%
Cc1ccc(CNC(=O)c2c(-c3ccccc3Cl)noc2C)o1 -9.66%
Cc1coc2cc3oc(=O)c(CC(=O)NCc4cccc(Cl)c4)c(C)c3cc12 -25.3%
COc1cc(OC)c(NC(=O)CN2CCCN(Cc3ccccc3C)S2(=O)=O)cc1Cl 0%
CN1CC(=O)NC1=N 14.1%
COc1cccc(Cn2c(=O)n(CCc3ccccc3)c(=O)c3c2c2cc(OC)ccc2n3C)c1 -1.01%
Cc1ccc(Cl)cc1NC(=O)C1CCN(S(=O)(=O)c2cccc3nonc23)CC1 -11.4%
COc1ccc(NC(=O)c2c(NC(=O)c3ccncc3)sc3c2CCC(C(C)(C)C)C3)cc1 (stereo not drawn) -29.4%
COc1cc(NC(=O)C(Cc2ccccc2)NS(=O)(=O)c2cccc3nsnc23)cc(OC)c1 (stereo not drawn) -28.9%
Cc1cccc(NC(=O)CSc2nc3ccccc3nc2N2CCCCC2)c1C -9.18%
CC(=O)SC[C@@H](Cc1ccccc1)C(=O)NCC(=O)OCc1ccccc1 3.69%
O=C(Cn1ccn(-c2ccc(F)c(F)c2)c(=O)c1=O)NCCc1ccccc1 -15.8%
CC(=O)c1cccc(NC(=O)CCc2c(C)nc3c(c(C)nn3-c3ccccc3)c2C)c1 -23.9%
Cc1cc(C)cc(NC(=O)c2cc(S(=O)(=O)N3CCC(C)CC3)cn2C)c1 -20.4%
CCCCNc1nc(Oc2ccc(=O)n(C)n2)nc(N2CCOCC2)n1 28.5%
CCn1c(-c2nonc2N)nc2cncc(CNC3CCNCC3)c21 -3.91%
Cc1cc(C)c2c(=O)cc(C(=O)Nc3c(C)n(C)n(-c4ccccc4)c3=O)oc2c1 -5.46% [at 11.5 µM]
O=C(CCC1N=C2c3ccccc3N=C(SCc3cccc(Cl)c3)N2C1=O)N1CCN(c2ccccc2)CC1 (stereo not drawn) -13.7%
CCOc1ccc(-c2cc3c(=O)n(CC(=O)Nc4cc(F)ccc4C)ccn3n2)cc1 37%
COc1ccc(C(=O)c2c(N)c(-c3nc(-c4ccc(OC)cc4)cs3)c3ccccn23)cc1 -7.99%
COc1cc2[nH]c(=O)n(CCC(=O)N3CCN(c4ccc(Cl)cc4)CC3)c(=O)c2cc1OC 0.394%
CCn1nc(-c2ccccc2)c(-c2ccccc2)c(C(=O)Nc2ccccc2C#N)c1=O -11.9%
Cc1cc(C)c(/C=C/c2onc(C)c2S(=O)(=O)N2CCC(C(=O)NCc3ccccc3Cl)CC2)c(C)c1 -13.4%
COc1ccc(S(=O)(=O)c2c(O)c3ccc(C(=O)NCc4ccc(Cl)cc4)cc3[nH]c2=O)cc1 -2.41%
Cc1csc2nc(COc3ccc(NC(=O)COc4ccccc4)cc3)cc(=O)n12 4.74%
CCN(Cc1ccccc1)C(=O)Cn1c(=O)n(-c2cccc(C)c2)c(=O)c2c1c1cc(C)ccc1n2C -18.3%
CC(=O)N(O)CCCCCNC(=O)CCC(=O)N(O)CCCCCNC(=O)CCC(=O)N(O)CCCCCN -21.8%
Cc1ccc2oc3c(c(=O)c2c1)C(c1ccc([N+](=O)[O-])cc1)N(CCCN1CCOCC1)C3=O (stereo not drawn) -6.76%
C=CCc1ccccc1OCc1nc2ccccc2n1CC -31.7%
O=C(O)Cc1cccc(-c2cc(CCCCCCc3ccc(O[C@H]4O[C@H](CO)[C@@H](O)[C@H](O)[C@@H]4O)c(-c4cccc(CC(=O)O)c4)c3)ccc2O[C@H]2O[C@H](CO)[C@@H](O)[C@H](O)[C@@H]2O)c1 9.75% [at 0.739 µM]
O=C(CN1C(=O)c2cccnc2Oc2ccc(Cl)cc21)NCCc1ccccc1 14.7%
CC(C)(C)C(=O)Cn1c(=O)n(-c2ccccc2)c(=O)c2c3c(sc21)CCC3 -6.12%
Cc1ccc(NC(=O)CN2C(=O)COc3ccc(S(=O)(=O)NC4CCCC4)cc32)cc1Cl -24.8%
CCCCNc1ccc(-c2nc(-c3ccco3)no2)cc1[N+](=O)[O-] 46.6%
CCOc1ccc(C(=O)Nc2cccc(NC(=O)c3ccc(C(C)(C)C)cc3)c2)cc1Br 8.25%
Cc1cccc(N2CCN(S(=O)(=O)c3cc(Cl)ccc3Cl)CC2)c1C -0.445%
Cn1c2ccccc2c2cnn(CC(=O)N3CCN(c4cccc(C(F)(F)F)c4)CC3)c(=O)c21 3.74%
COc1ccc(-c2nc(SCC(=O)Nc3ccc4c(c3)OCCO4)c(-c3ccc(F)cc3)[nH]2)cc1OC -16.4%
COc1ccc(CC(=O)NCc2ccc3c(c2)CCN3C(C)=O)cc1 -5.14%
Cc1ccc(-c2ccccc2C#N)cc1 5.19%
CC1=C(C(N)=O)C(c2ccc(F)cc2)n2nc(-c3ccccc3Cl)nc2N1 (stereo not drawn) -15.1%
Cc1ccc(NC(=O)CCCn2c(=O)c3cccn3c3ccccc32)cc1C -15.3%
CC(C)CC(=O)n1nc(-c2cccnc2)nc1NCc1ccc(F)cc1 -37.9%
COCCCNC(=O)c1ccc(-n2c(-c3ccccc3)cc3c2CCCC3)cc1 15.6%
O=C(OCc1cc(=O)n2nc(C3CCCCC3)sc2n1)c1ccccc1Cl -1.13%
COc1cccc(-c2nnc(SCC(=O)N3CCC(C)CC3)o2)c1 3.44%
Cc1cc(C)n(-c2nc3ccccc3nc2Nc2ccc(Cl)c(C(=O)OC(C)C)c2)n1 12%
COc1ccc(OCC(=O)OCc2cc(=O)n3nc(-c4cccs4)sc3n2)cc1 11.2%
OC[C@H]1O[C@@H]2O[C@H]3[C@H](O)[C@@H](O)[C@@H](O[C@H]4[C@H](O)[C@@H](O)[C@@H](O[C@H]5[C@H](O)[C@@H](O)[C@@H](O[C@H]6[C@H](O)[C@@H](O)[C@@H](O[C@H]7[C@H](O)[C@@H](O)[C@@H](O[C@H]8[C@H](O)[C@@H](O)[C@@H](O[C@H]1[C@H](O)[C@H]2O)O[C@@H]8CO)O[C@@H]7CO)O[C@@H]6CO)O[C@@H]5CO)O[C@@H]4CO)O[C@@H]3CO 6.92%
Cc1ccc(Cl)cc1NC(=O)Cn1c(=O)n(Cc2ccccc2)c(=O)c2oc3ccccc3c21 -9.86%
Cc1ccc(CNC(=O)CCc2c(C)nc3nc(C)nn3c2C)cc1 -9.61%
Cc1ccc(OCC(=O)Nc2cccc(OCc3cc(=O)n4cccc(C)c4n3)c2)cc1C 6.11%
Cc1ccc(CCNC(=O)CCCn2c(=O)c3ccccc3n(Cc3ccccc3C#N)c2=O)cc1 -15.3%
CCn1cc2c(n1)-c1c(oc(C(=O)Nc3cccc(C)c3C)c1C)CC2 67%
CCc1ccc(O)c(C(=O)c2cnc3cc(-c4ccc(C)cc4)nn3c2)c1 -1.13%
N#Cc1c(C(F)(F)F)cc(-c2cccs2)nc1SCC(=O)Nc1ccccc1F -24.8%
Cc1cc(C)cc(NC(=O)CSc2oc(-c3ccccc3)nc2S(=O)(=O)c2ccccc2)c1 -22%
O=C1Cc2cc(CCN3CCN(c4nsc5ccccc45)CC3)c(Cl)cc2N1
CCOc1ccc(-c2cc(C(=O)NCc3ccccc3Cl)c3ccccc3n2)cc1 -2.22%
CCn1cc(S(=O)(=O)c2ccccc2)c(=O)c2cc(F)c(N3CCCC3)cc21 -22.6%
Cc1cc(C)cc(NS(=O)(=O)c2ccc3[nH]cc(C(=O)NC4CCCCC4)c(=O)c3c2)c1 -29.8%
Cc1cc2nc(-c3cccc(NC(=O)C(C)C)c3C)oc2cc1C 18.1%
O=C(c1cc(-c2ccccc2O)on1)N1CCCCC1 80.3%
CCc1c(C)nc(SCc2nc(-c3ccccc3)no2)[nH]c1=O 9.03%
O=C(c1ccc2c(c1)N(Cc1ccccc1F)C(=O)c1ccccc1S2(=O)=O)N1CCN(c2ccccc2F)CC1 -6.35%
CCN(CC)C(=O)c1sc2c(c1C)c(=O)n(CCc1ccccc1)c(=O)n2Cc1ccc(F)cc1Cl 0.252%
CCOc1ccc(C(=O)Nc2ccc3nn(-c4ccc(OC)c(Cl)c4)nc3c2)cc1 -13.4%
COc1cc(S(N)(=O)=O)cc(C(=O)O)c1OC -0.905%
CCN[C@H]1C[C@H](C)S(=O)(=O)c2sc(S(N)(=O)=O)cc21
COc1ccc2cc(-c3nc(Cl)c4c5c(sc4n3)CC(C)CC5)c(=O)oc2c1 (stereo not drawn) -13.4%
O=C(Cn1c(=O)n(-c2cccc(Cl)c2)c(=O)c2sc3ccccc3c21)NC1CCCCC1 -14.5%
CNC(=O)C1CCC(Cn2c(=O)c3sccc3n(CC(=O)NCc3ccc(OC)cc3)c2=O)CC1 (stereo not drawn) -20.1%
COc1ccccc1NC(=O)c1c(NC(=O)COc2ccccc2)sc2c1CCCCC2 -9.26%
COc1ccc(CCNC(=O)Cn2c(=O)c3sccc3n(CC(=O)Nc3cccc(C(F)(F)F)c3)c2=O)cc1OC 0.558%
Cc1ccc(-c2ncc(Cl)cc2-c2ccc(S(C)(=O)=O)cc2)cn1 -11%
